Experimental data published in publication PMC9911399, “Two distinct binding modes provide the RNA-binding protein RbFox with extraordinary sequence specificity”.
Residue numbers refer to the chain shown, from its start. This is one part of the list.

T1: RBFOX1 RRM RbFoxmut (Fox-RRM*) (Homo sapiens, UniProt Q9NWB1 109-208, R118D;E147R;N151S;E152T)
T1 sequence: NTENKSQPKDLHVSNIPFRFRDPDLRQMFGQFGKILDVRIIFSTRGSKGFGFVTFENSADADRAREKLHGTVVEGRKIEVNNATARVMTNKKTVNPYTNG

B1: CUUAGUU (DNA:RNA)
RNA: GGGAGACCGGAAUUCAGAUUGUCCCUUAGUUUUAAAUCCCGUCGUAGCCACCA
DNA 1: CAATCTGAATTCCGGTCTCCC
DNA 2: TGGTGGCTACGACGGGATT
B2: CAUUGCG (DNA:RNA)
RNA: B1 RNA with U26A, A28U, U30C, U31G
DNA 1: CAATCTGAATTCCGGTCTCCC
DNA 2: TGGTGGCTACGACGGGATT
B3: CAGGCCA (DNA:RNA)
RNA: B1 RNA with U26A, U27G, A28G, G29C, U30C, U31A
DNA 1: CAATCTGAATTCCGGTCTCCC
DNA 2: TGGTGGCTACGACGGGATT
B4: UAAACUC (DNA:RNA)
RNA: B1 RNA with C25U, U26A, U27A, G29C, U31C
DNA 1: CAATCTGAATTCCGGTCTCCC
DNA 2: TGGTGGCTACGACGGGATT
B5: ACCUUCC (DNA:RNA)
RNA: GGGAGACCGGAAUUCAGAUUGUCCACCUUCCUUAAAUCCCGUCGUAGCCACCA
DNA 1: CAATCTGAATTCCGGTCTCCC
DNA 2: TGGTGGCTACGACGGGATT
B6: GCGAUUG (DNA:RNA)
RNA: B5 RNA with A25G, C27G, U28A, C30U, C31G
DNA 1: CAATCTGAATTCCGGTCTCCC
DNA 2: TGGTGGCTACGACGGGATT
B7: CCGGGCU (DNA:RNA)
RNA: B1 RNA with U26C, U27G, A28G, U30C
DNA 1: CAATCTGAATTCCGGTCTCCC
DNA 2: TGGTGGCTACGACGGGATT
B8: UGAGAUG (DNA:RNA)
RNA: B1 RNA with C25U, U26G, U27A, A28G, G29A, U31G
DNA 1: CAATCTGAATTCCGGTCTCCC
DNA 2: TGGTGGCTACGACGGGATT
B9: UCUAUAU (DNA:RNA)
RNA: B1 RNA with C25U, U26C, G29U, U30A
DNA 1: CAATCTGAATTCCGGTCTCCC
DNA 2: TGGTGGCTACGACGGGATT
B10: GUAUCCU (DNA:RNA)
RNA: B5 RNA with A25G, C26U, C27A, U29C, C31U
DNA 1: CAATCTGAATTCCGGTCTCCC
DNA 2: TGGTGGCTACGACGGGATT
B11: UCUAUAG (DNA:RNA)
RNA: B5 RNA with A25U, C27U, U28A, C30A, C31G
DNA 1: CAATCTGAATTCCGGTCTCCC
DNA 2: TGGTGGCTACGACGGGATT
B12: GUUGCAC (DNA:RNA)
RNA: B1 RNA with C25G, A28G, G29C, U30A, U31C
DNA 1: CAATCTGAATTCCGGTCTCCC
DNA 2: TGGTGGCTACGACGGGATT
B13: UGAGAAA (DNA:RNA)
RNA: GGGAGACCGGAAUUCAGAUUGUCCUGAGAAAUUAAAUCCCGUCGUAGCCACCA
DNA 1: CAATCTGAATTCCGGTCTCCC
DNA 2: TGGTGGCTACGACGGGATT
B14: GAGUAGA (DNA:RNA)
RNA: B13 RNA with U25G, G26A, A27G, G28U, A30G
DNA 1: CAATCTGAATTCCGGTCTCCC
DNA 2: TGGTGGCTACGACGGGATT
B15: UCUAAAU (DNA:RNA)
RNA: B1 RNA with C25U, U26C, G29A, U30A
DNA 1: CAATCTGAATTCCGGTCTCCC
DNA 2: TGGTGGCTACGACGGGATT
B16: UCCCAUC (DNA:RNA)
RNA: B5 RNA with A25U, U28C, U29A, C30U
DNA 1: CAATCTGAATTCCGGTCTCCC
DNA 2: TGGTGGCTACGACGGGATT
B17: UUGUCCU (DNA:RNA)
RNA: B5 RNA with A25U, C26U, C27G, U29C, C31U
DNA 1: CAATCTGAATTCCGGTCTCCC
DNA 2: TGGTGGCTACGACGGGATT
B18: AGCGCCG (DNA:RNA)
RNA: B5 RNA with C26G, U28G, U29C, C31G
DNA 1: CAATCTGAATTCCGGTCTCCC
DNA 2: TGGTGGCTACGACGGGATT
B19: AACUGCC (DNA:RNA)
RNA: B5 RNA with C26A, U29G
DNA 1: CAATCTGAATTCCGGTCTCCC
DNA 2: TGGTGGCTACGACGGGATT
B20: ACCUCAU (DNA:RNA)
RNA: B5 RNA with U29C, C30A, C31U
DNA 1: CAATCTGAATTCCGGTCTCCC
DNA 2: TGGTGGCTACGACGGGATT

Target: T1, RBFOX1 RRM RbFoxmut (Fox-RRM*)
Experiment: EMSA; HiTS-Eq, 1 nM pool, 10 min; buffer printed only for the single-RNA assays: 10 mM Tris pH 7.5, 150 mM NaCl, 3.4 mM EDTA, 0.001% NP-40, 30 C
Settings: tags: His6 N-terminal (pET28a); label: 5' 32P
Method in brief: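 Purified RbFox RRM, wild type or mutant, was incubated for 10 min in 50 µL with 1 nM of a 5′-radiolabelled RNA pool carrying 7 randomized nucleotides, whose flanks were annealed to DNA oligonucleotides, over a series of increasing protein concentrations. Unbound RNA was resolved on 8% native PAGE, cut out, reverse-transcribed, barcoded by PCR and sequenced on an Illumina HiSeq 2500. Relative association constants were derived from changes in read counts for each RNA species versus the control reaction and normalised to the cognate motif.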

Row | Binder | binding signal
1 | B1 | 0.105 KA relative to UGCAUGU
2 | B2 | 0.151 KA relative to UGCAUGU
3 | B3 | 0.093 KA relative to UGCAUGU
4 | B4 | 0.0578 KA relative to UGCAUGU
5 | B5 | 0.0594 KA relative to UGCAUGU
6 | B6 | 0.206 KA relative to UGCAUGU
7 | B7 | 0.0717 KA relative to UGCAUGU
8 | B8 | 0.429 KA relative to UGCAUGU
9 | B9 | 0.106 KA relative to UGCAUGU
10 | B10 | 0.168 KA relative to UGCAUGU
11 | B11 | 0.133 KA relative to UGCAUGU
12 | B12 | 0.103 KA relative to UGCAUGU
13 | B13 | 0.087 KA relative to UGCAUGU
14 | B14 | 0.117 KA relative to UGCAUGU
15 | B15 | 0.0872 KA relative to UGCAUGU
16 | B16 | 0.107 KA relative to UGCAUGU
17 | B17 | 0.0981 KA relative to UGCAUGU
18 | B18 | 0.116 KA relative to UGCAUGU
19 | B19 | 0.156 KA relative to UGCAUGU
20 | B20 | 0.117 KA relative to UGCAUGU
